The supplement of paper PMC4166925
± gives the standard deviation of the averaged measurements. In all, about 33,000 sequences were measured (“E-score (dimensionless, -0.5 to 0.5)”: median about -0.049, highest 2% from about 0.37 on). The list shows a part of the results.

test system: T1, PmTbr T-box DNA-binding domain (GST fusion); assay: PBM E-score of 8-mer (E-score (dimensionless, -0.5 to 0.5)); Tbr is Tbrain of the sea star Patiria miniata (Pm) or the sea urchin Strongylocentrotus purpuratus (Sp); higher = stronger binding preference; most listed sequences are background and not binding sites; settings: the construct has about 5 more residues each side
T1 sequence: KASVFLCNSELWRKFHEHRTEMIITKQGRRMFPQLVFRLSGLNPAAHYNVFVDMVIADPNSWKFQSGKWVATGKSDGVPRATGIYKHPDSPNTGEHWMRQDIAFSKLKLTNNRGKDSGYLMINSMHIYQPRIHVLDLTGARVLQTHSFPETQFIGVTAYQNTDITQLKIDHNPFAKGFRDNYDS
How it was run: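 Expression of GST-fused Tbr T-box DNA-binding domains, each holding the full T-box plus roughly five flanking residues, was carried out in BL21 E. coli at 20 °C, with purification by glutathione affinity chromatography. Universal Agilent arrays made double-stranded by primer extension were incubated with the protein at 200 nM in PBS (pH 7.5), then scanned and quantified. All ungapped 8-mers were scored from probe intensities, and each received an enrichment E-score from the Universal PBM Analysis Suite, averaged over duplicate arrays.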

Row | Sequence | PBM E-score of 8-mer
1 | AATGTAAC | 0.0157 ± 0.11
2 | AGCAAATC | 0.00607 ± 0.054
3 | GGAGAGGA | -0.1 ± 0.0036
4 | GAGGGTTA | -0.0685 ± 0.061
5 | TAAATGTA | -0.114 ± 0.0084
6 | AGGGTCAC | 0.0889 ± 0.0067
7 | CCAATCCG | -0.0014 ± 0.016
8 | AATGTGCG | 0.27 ± 0.012
9 | ACAAAGGC | -0.106 ± 0.089
10 | AGAACATC | -0.098 ± 0.021
11 | GGCACTGA | -0.0347 ± 0.026
12 | AGCTTCTG | -0.218 ± 0.059
13 | CTAACTTC | -0.194 ± 0.036
14 | AACGTGCC | 0.14 ± 0.005
15 | GCTTCAAA | 0.0832 ± 0.024
16 | GGACCTCA | -0.194 ± 0.042
17 | ATGAGGGC | -0.159 ± 0.035
18 | CGGTAAGC | -0.0776 ± 0.021
19 | AGCTTAAA | -0.236 ± 0.079
20 | AACCTATG | -0.141 ± 0.019
21 | GTCGCGAC | 0.385 ± 0.0054
22 | CCGCAAGC | -0.0781 ± 0.097
23 | CACGTGCA | 0.219 ± 0.023
24 | CTTAGCAA | 0.0581 ± 0.031
25 | ACTGATTC | -0.25 ± 0.019

Row | Sequence | PBM E-score of 8-mer
26 | GAAATTCA | -0.00077 ± 0.00047
27 | GACATAAC | 0.0267 ± 0.016
28 | CACAGAGC | -0.165 ± 0.047
29 | AGATTTTG | -0.0202 ± 0.02
30 | AGTGTAGG | 0.033 ± 0.0069
31 | ACTCAAGT | -0.000135 ± 0.051
32 | GGGCTACA | -0.199 ± 0.036
33 | TGCGGACA | 0.13 ± 0.0038
34 | GCGCTTAC | 0.178 ± 0.0096
35 | AACAACAT | 0.123 ± 0.0088
36 | CACCCGCA | 0.261 ± 0.031
37 | CCTTAATC | 0.0639 ± 0.029
38 | CGCTGCTC | -0.0866 ± 0.022
39 | AAATTCGC | 0.255 ± 0.029
40 | CCGACAGG | 0.121 ± 0.053
41 | ATCGCGTG | 0.246 ± 0.017
42 | CAATACAG | -0.1 ± 0.057
43 | CTACAATC | 0.129 ± 0.022
44 | CTTTGGAA | -0.166 ± 0.045
45 | CGGATATA | -0.213 ± 0.0022
46 | CAACGCCC | 0.2112 ± 0.00054
47 | CGGCTTGA | -0.00918 ± 0.014
48 | TAAACAAA | 0.038 ± 0.014
49 | CCAGCACC | 0.264 ± 0.035
50 | CCTTACCA | 0.0951 ± 0.089

Row | Sequence | PBM E-score of 8-mer
51 | AATGTTAT | -0.00229 ± 0.038
52 | ACCACCCC | 0.191 ± 0.072
53 | ACTTAAAG | 0.0623 ± 0.041
54 | CTGTTAAC | 0.281 ± 0.055
55 | CACCTCTA | 0.44129 ± 0.00038
56 | CGATCAGC | 0.0482 ± 0.0031
57 | AAGGTTAG | -0.0617 ± 0.054
58 | GGCCAGTA | -0.0613 ± 0.025
59 | AGATCCCG | -0.0625 ± 0.084
60 | CGTATTTA | -0.00831 ± 0.11
61 | CAGGGCCC | -0.299 ± 0.032
62 | ACTCTCAA | 0.00381 ± 0.03
63 | AGGCTACA | -0.0503 ± 0.024
64 | GGCCTCCC | -0.181 ± 0.008
65 | ACTCCCAT | -0.0486 ± 0.024
66 | CTTCTGGA | -0.2303 ± 0.0021
67 | AGAATTCA | -0.0891 ± 0.075
68 | ACTGCAGT | 0.185 ± 0.034
69 | TGCTTCCA | -0.124 ± 0.098
70 | AGGGCCAG | -0.185 ± 0.033
71 | ACACATTG | 0.39 ± 0.017
72 | ACGAACAT | -0.224 ± 0.011
73 | CGCTGTAA | 0.0407 ± 0.019
74 | ATTTTCGG | -0.00858 ± 0.028
75 | ATTGACTG | -0.0222 ± 0.017

Row | Sequence | PBM E-score of 8-mer
76 | TTATACAA | -0.0496 ± 0.049
77 | CCGGGACG | -0.274 ± 0.09
78 | CATCTCCA | 0.128 ± 0.0027
79 | GGGATTAA | -0.159 ± 0.051
80 | ATAAGGAA | -0.166 ± 0.079
81 | GTCATCTA | -0.0416 ± 0.04
82 | GACATGCC | -0.0764 ± 0.03
83 | AGAAATCT | -0.161 ± 0.079
84 | GTGTTGCA | 0.30766 ± 0.00019
85 | AGCCCTAC | -0.306 ± 0.038
86 | CAATAGCG | 0.118 ± 0.13
87 | CTATTAAC | 0.148 ± 0.04
88 | TGGGAGAA | -0.0759 ± 0.003
89 | ACATCCGC | -0.0577 ± 0.029
90 | ATCAGCCG | -0.118 ± 0.0032
91 | ACTCCCAG | 0.0574 ± 0.15
92 | CATCCGAC | -0.1077 ± 0.00047
93 | ACAGGATG | -0.0297 ± 0.003
94 | ACAGGAGA | -0.2114 ± 0.001
95 | CTCCGTGC | -0.161 ± 0.079
96 | ACAGGGAC | -0.153 ± 0.017
97 | AGATAGAA | -0.122 ± 0.05
98 | ATCAACAG | 0.0457 ± 0.077
99 | TAAACCCA | -0.0858 ± 0.0046
100 | CTTATCGA | 0.149 ± 0.0083

Row | Sequence | PBM E-score of 8-mer
101 | AGCTCCAT | -0.286 ± 0.056
102 | GGTATATA | -0.0526 ± 0.016
103 | ACACTATA | 0.269 ± 0.0039
104 | CATGAGGC | -0.146 ± 0.074
105 | GTCTATAA | -0.11 ± 0.017
106 | AAGATAGG | -0.213 ± 0.029
107 | ATTGGGGC | -0.0884 ± 0.083
108 | AAGGCCCG | -0.267 ± 0.075
109 | AGCATATG | -0.0737 ± 0.041
110 | ACAAATCG | 0.175 ± 0.0097
111 | GCGATGCC | 0.0631 ± 0.0054
112 | GTGAGCAA | 0.23225 ± 4.2e-05
113 | CCCCTCAC | 0.189 ± 0.049
114 | CCTAGGAC | 0.141 ± 0.039
115 | GAGTCAGC | -0.147 ± 0.016
116 | AGACATGA | 0.173 ± 0.021
117 | GGAACTTA | -0.154 ± 0.032
118 | GCTTCTGA | -0.015 ± 0.033
119 | ATTCACAC | 0.4763 ± 0.0034
120 | GCTACGCA | -0.0652 ± 0.035
121 | AAGAGCGT | -0.119 ± 0.04
122 | AAGGAAGT | 0.0236 ± 0.043
123 | ATCTTGTG | 0.00868 ± 0.075
124 | CCCCGGCC | -0.0747 ± 0.06
125 | CATAACCG | 0.0089 ± 0.018

Row | Sequence | PBM E-score of 8-mer
126 | CGCCTCGA | 0.151 ± 0.069
127 | ATCCTCAG | -0.0729 ± 0.034
128 | AACAAAGC | 0.0116 ± 0.00023
129 | AGTTTCAT | -0.23 ± 0.038
130 | ACGCAAAA | 0.167 ± 0.0045
131 | CCCCTACA | -0.0297 ± 0.0042
132 | GCAGCATA | -0.0274 ± 0.017
133 | CCACCGCA | -0.0384 ± 0.031
134 | TACATTCA | -0.0602 ± 0.15
135 | CCTTCCGA | -0.048 ± 0.027
136 | GGTTTTAC | -0.118 ± 0.0048
137 | TGACGACA | 0.264 ± 0.034
138 | CCCGCGCA | -0.0204 ± 0.085
139 | TACAGACA | 0.0602 ± 0.028
140 | GCACTGGC | -0.145 ± 0.12
141 | AACGGTAG | -0.0635 ± 0.0099
142 | ATGCTTAC | -0.113 ± 0.11
143 | GATCGTGC | 0.0937 ± 0.057
144 | CTTCGAAG | 0.0912 ± 0.026
145 | GAAAAGCA | -0.0323 ± 0.00098
146 | CACCAGAC | 0.113 ± 0.011
147 | CCGCCGCC | -0.0738 ± 0.1
148 | GCAAGCAA | 0.0011 ± 0.053
149 | AATTGGAG | -0.116 ± 0.0036
150 | CAAATTTA | -0.0401 ± 0.12

Row | Sequence | PBM E-score of 8-mer
151 | CATGCGAC | 0.0036 ± 0.057
152 | ACTCGTCC | -0.0232 ± 0.021
153 | GAGCACAA | -0.133 ± 0.02
154 | GCGCGCGA | 0.2759 ± 0.00057
155 | ACAGATGT | 0.153 ± 0.02
156 | ACTTGGAG | -0.00346 ± 0.017
157 | AGTCGACT | 0.0957 ± 0.0034
158 | AGGTTTGC | -0.169 ± 0.029
159 | ACTATGGC | 0.0668 ± 0.019
160 | GGTGCGCA | 0.173 ± 0.045
161 | ATTCGACG | -0.0492 ± 0.026
162 | ATACCCAC | -0.22 ± 0.029
163 | AGTGTGGA | 0.354 ± 0.0036
164 | TATTCAAA | -0.319 ± 0.073
165 | GACGAAAC | 0.0247 ± 0.027
166 | ACATTCCC | -0.176 ± 0.043
167 | GCTTCACC | 0.0106 ± 0.012
168 | CTCATCAG | -0.208 ± 0.023
169 | ATGTTTAG | -0.22 ± 0.022
170 | TCTCCCAA | 0.0238 ± 0.012
171 | AGGACCGA | -0.0377 ± 0.051
172 | CAGCGTGA | 0.266 ± 0.0088
